This is a noisy data set.

The source of these data is the supplement of paper PMC12067230.
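Also: [psi-pin-] Saccharomyces cerevisiae expressing SupN fusions, induced by 100 µM Cu2SO4, selected 7 d at 30 °C without adenine and uracil, scored by deep sequencing of output versus input.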

One series is described as follows: amyloid nucleation score relative to library mode (yeast Sup35 reporter selection) (log enrichment difference); higher = more amyloid nucleation; sequences are the first 22 residues of the Bri2 peptide extended by up to 12 random residues. Conditions: random library (experiment): 1;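 active = nucleation score significantly above 0 at FDR 0.05; inactive = not significantly above 0 or absent from output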.
With EASNCFAIRHFENKFAVETLICGARRDARSAGPA, the amyloid nucleation score result is “inactive”. On the same count and under the same terms, the same measure for EASNCFAIRHFENKFAVETLICGARRTSSFRGNP: -0.203; for EASNCFAIRHFENKFAVETLICGASCVYYAVAFR: “inactive”.

As for EASNCFAIRHFENKFAVETLICGASGSQFAWEPR, the amyloid nucleation score result was “inactive”.

For EASNCFAIRHFENKFAVETLICGASNVPRREVPA, the amyloid nucleation score entry was “inactive”. Regarding EASNCFAIRHFENKFAVETLICGASRDCMVRCAA, the amyloid nucleation score result was “inactive”. As for EASNCFAIRHFENKFAVETLICGASS, the amyloid nucleation score entry was “inactive”. In the case of EASNCFAIRHFENKFAVETLICGASVYNSCDIAS, the amyloid nucleation score entry was “inactive”. On the same count and under the same terms, the same measure for EASNCFAIRHFENKFAVETLICGASWPRVSERVS: “inactive”. For EASNCFAIRHFENKFAVETLICGATFD, the amyloid nucleation score is 3.12.

For EASNCFAIRHFENKFAVETLICGAVC, the amyloid nucleation score entry was “inactive”.

EASNCFAIRHFENKFAVETLICGAVSFTMNGCFR came in with an amyloid nucleation score of 6.78.

EASNCFAIRHFENKFAVETLICGAYAQPFTLFSR: the amyloid nucleation score entry was “inactive”. Take EASNCFAIRHFENKFAVETLICGC: the amyloid nucleation score was -0.513. For the sequence EASNCFAIRHFENKFAVETLICGCAELLSGAVAF, the amyloid nucleation score entry was “inactive”. On the same count and under the same terms, in the case of EASNCFAIRHFENKFAVETLICGCALRGFTGGYV it was 4.52; in that of EASNCFAIRHFENKFAVETLICGCALYQSFRGGL, 3.69. Same read-out and setting: the same measure for EASNCFAIRHFENKFAVETLICGCASFWRSVCRC: 5.68. The same measure, in the same setting: in the case of EASNCFAIRHFENKFAVETLICGCASVSFKGRRV it was 5.82. Take EASNCFAIRHFENKFAVETLICGCEISATHWLNR: the amyloid nucleation score was 4.65. Sequence EASNCFAIRHFENKFAVETLICGCFLSDTCLLIQ showed an amyloid nucleation score of 2.49. The same measure, in the same setting: in the case of EASNCFAIRHFENKFAVETLICGCGLRYFAGMW it was “inactive”; in that of EASNCFAIRHFENKFAVETLICGCGRARRIVVLP, “inactive”. The same measure, in the same setting: the same measure for EASNCFAIRHFENKFAVETLICGCGYGHRVAVGI: “inactive”; for EASNCFAIRHFENKFAVETLICGCKESVRPLYAQ: “inactive”; for EASNCFAIRHFENKFAVETLICGCKVSNLHRDVK: 7.23. In the case of EASNCFAIRHFENKFAVETLICGCLCTASERRYV, the amyloid nucleation score was 7.02. On the same count and under the same terms, the same measure for EASNCFAIRHFENKFAVETLICGCLRMSWRRGVQ: 4.04. On the same count and under the same terms, in the case of EASNCFAIRHFENKFAVETLICGCLRVGTHVVKG it was “inactive”; in that of EASNCFAIRHFENKFAVETLICGCQVLWCPPVFA, “inactive”; in that of EASNCFAIRHFENKFAVETLICGCRCG, 5.95. Consider EASNCFAIRHFENKFAVETLICGCRHALNRRLGW, for which the amyloid nucleation score entry was “inactive”. The same measure, in the same setting: in the case of EASNCFAIRHFENKFAVETLICGCRQCETVSRMM it was 3.93. Same read-out and setting: in the case of EASNCFAIRHFENKFAVETLICGCRRSYVRAGWR it was “inactive”; in that of EASNCFAIRHFENKFAVETLICGCRSSRSLPIGA, “inactive”; in that of EASNCFAIRHFENKFAVETLICGCRYGNGVRHAC, “inactive”. Still for that read-out and setting: the same measure for EASNCFAIRHFENKFAVETLICGCS: “inactive”. On to EASNCFAIRHFENKFAVETLICGCSKCEIDGCKT, for which the amyloid nucleation score was determined as 6.69. EASNCFAIRHFENKFAVETLICGCTVVSL came in with an amyloid nucleation score of 5.81. Still for that read-out and setting: in the case of EASNCFAIRHFENKFAVETLICGCVCARVNVPVT it was 5.78.

Take EASNCFAIRHFENKFAVETLICGCVDSFMIYAQA: the amyloid nucleation score result was “inactive”.

With EASNCFAIRHFENKFAVETLICGCVHSIECLVLA, the amyloid nucleation score result was “inactive”. EASNCFAIRHFENKFAVETLICGCVKFTDTSWWS gave an amyloid nucleation score of 3.89. The same measure, in the same setting: in the case of EASNCFAIRHFENKFAVETLICGCVYGGGWGWCW it was 6.95; in that of EASNCFAIRHFENKFAVETLICGCWIGGRRRA, “inactive”. Still for that read-out and setting: in the case of EASNCFAIRHFENKFAVETLICGCYVGRSVSSNC it was “inactive”; in that of EASNCFAIRHFENKFAVETLICGD, “inactive”. The same measure, in the same setting: the same measure for EASNCFAIRHFENKFAVETLICGDAHVPCAVWNT: -0.163. Sequence EASNCFAIRHFENKFAVETLICGDALDSE yielded an amyloid nucleation score of -0.0664. As to EASNCFAIRHFENKFAVETLICGDAVAGLASARK, the amyloid nucleation score result is “inactive”.

On to EASNCFAIRHFENKFAVETLICGDAYTTVSMGER, for which the amyloid nucleation score is 6.93.

With EASNCFAIRHFENKFAVETLICGDCRGTACAGCK, the amyloid nucleation score result was “inactive”.

Regarding EASNCFAIRHFENKFAVETLICGDGARNWGPCLG, the amyloid nucleation score result is “inactive”.

Staying with this series, now noted: random library (experiment): 2.
As for EASNCFAIRHFENKFAVETLICGARGEERGLVHG, the amyloid nucleation score result was “inactive”. Same read-out and setting: the same measure for EASNCFAIRHFENKFAVETLICGARNF: “inactive”. In the case of EASNCFAIRHFENKFAVETLICGAVR, the amyloid nucleation score result was “inactive”.

In the case of EASNCFAIRHFENKFAVETLICGAY, the amyloid nucleation score came to 0.625.

For the sequence EASNCFAIRHFENKFAVETLICGAYTEAWRGQGG, the amyloid nucleation score amounted to 2.6. EASNCFAIRHFENKFAVETLICGCCGMLRLLRVG: the amyloid nucleation score was 5.66.

Turning to EASNCFAIRHFENKFAVETLICGCELRSSQMNSW, the amyloid nucleation score entry was “inactive”. On the same count and under the same terms, the same measure for EASNCFAIRHFENKFAVETLICGCHTLCTRRGEE: 6.98; for EASNCFAIRHFENKFAVETLICGCISEFERLYRE: “inactive”; for EASNCFAIRHFENKFAVETLICGCKRSKPSHFLG: “inactive”. As for EASNCFAIRHFENKFAVETLICGCLVNWFYRPRR, the amyloid nucleation score is 8.23.

Take EASNCFAIRHFENKFAVETLICGCNRMTILSLAL: the amyloid nucleation score result is “inactive”. With EASNCFAIRHFENKFAVETLICGCNV, the amyloid nucleation score result was “inactive”. Still for that read-out and setting: the same measure for EASNCFAIRHFENKFAVETLICGCQFSISCILLT: “inactive”; for EASNCFAIRHFENKFAVETLICGCQVKLIFVSRY: 4.42.

In the case of EASNCFAIRHFENKFAVETLICGCVMSMDDRNSA, the amyloid nucleation score is 7.97. Take EASNCFAIRHFENKFAVETLICGCVVWVVSVSVS: the amyloid nucleation score stood at 0.571. EASNCFAIRHFENKFAVETLICGCWFVSVFPCAI: the amyloid nucleation score result was “inactive”. Still for that read-out and setting: in the case of EASNCFAIRHFENKFAVETLICGDCFILCSMTWK it was 4.61. On the same count and under the same terms, the same measure for EASNCFAIRHFENKFAVETLICGDDCLRGADVSS: 0.408; for EASNCFAIRHFENKFAVETLICGDDTTCRWEW: “inactive”.

The same series, now with this note: random library (experiment): 3.
As for EASNCFAIRHFENKFAVETLICGARERVLLHSVL, the amyloid nucleation score result was “inactive”. On the same count and under the same terms, the same measure for EASNCFAIRHFENKFAVETLICGARGHVMDDEST: “inactive”; for EASNCFAIRHFENKFAVETLICGARTHLPTACPV: “inactive”; for EASNCFAIRHFENKFAVETLICGASYGLLSTGQE: “inactive”.

In the case of EASNCFAIRHFENKFAVETLICGATAKVIVSGYE, the amyloid nucleation score result is “inactive”. Consider EASNCFAIRHFENKFAVETLICGATLRPCRSLKY, for which the amyloid nucleation score entry is “inactive”.

Regarding EASNCFAIRHFENKFAVETLICGATMLWRDTR, the amyloid nucleation score was 4.81.

With EASNCFAIRHFENKFAVETLICGATRLNMEENGS, the amyloid nucleation score entry is “inactive”. The same measure, in the same setting: the same measure for EASNCFAIRHFENKFAVETLICGATSFAVLCGLE: 1.45; for EASNCFAIRHFENKFAVETLICGAVRP: “inactive”; for EASNCFAIRHFENKFAVETLICGAWIRGIFRNCR: “inactive”. The same measure, in the same setting: the same measure for EASNCFAIRHFENKFAVETLICGAYRVFSTDVAL: 2.99. On the same count and under the same terms, the same measure for EASNCFAIRHFENKFAVETLICGAYTKRAAQPGD: “inactive”; for EASNCFAIRHFENKFAVETLICGCASDGTGVGL: “inactive”. As to EASNCFAIRHFENKFAVETLICGCKFTMISGRAG, the amyloid nucleation score is 1.67. For EASNCFAIRHFENKFAVETLICGCKIIY, the amyloid nucleation score turned out to be 5.5. In turn, EASNCFAIRHFENKFAVETLICGCKNGWRNWPCW gave an amyloid nucleation score of 5.63.

EASNCFAIRHFENKFAVETLICGCLRLMRWLVHS: the amyloid nucleation score result was “inactive”. The sequence EASNCFAIRHFENKFAVETLICGCMCPQ came in with an amyloid nucleation score of 7.95. Turning to EASNCFAIRHFENKFAVETLICGCMPKLQDIIT, the amyloid nucleation score was found to be 4.02. As for EASNCFAIRHFENKFAVETLICGCMVMWCIVSD, the amyloid nucleation score entry is “inactive”. The same measure, in the same setting: the same measure for EASNCFAIRHFENKFAVETLICGCSVSSVHLNLG: 6.7. Regarding EASNCFAIRHFENKFAVETLICGCTMRRMLATSW, the amyloid nucleation score entry was “inactive”.

As for EASNCFAIRHFENKFAVETLICGCV, the amyloid nucleation score came to 4.05.

With EASNCFAIRHFENKFAVETLICGCWNEPLLACTG, the amyloid nucleation score result is “inactive”.

With EASNCFAIRHFENKFAVETLICGDADYTFGAAYA, the amyloid nucleation score entry is “inactive”.

Turning to EASNCFAIRHFENKFAVETLICGDAVWRVVDNCE, the amyloid nucleation score entry is “inactive”. Regarding EASNCFAIRHFENKFAVETLICGDDSGWFSARAR, the amyloid nucleation score result was “inactive”. EASNCFAIRHFENKFAVETLICGDFVMWYAGSVA showed an amyloid nucleation score of 6.48.
